Results: PubChem BioAssay (NCI)
“And” between values parts separate entries of the source, which are not always exact repeats. Identical values can stand only once.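 A five-concentration, 48-hour dose response in 96-well plates underlies each endpoint, interpolated linearly between surrounding concentrations. The concentration for 50% growth inhibition is given as GI50. TGI: total growth inhibition.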 Numbered stars: 1 amine (or outer) side, 2 acyl side, 3 side chain; on linkers, the order of the positions; unused ones are H or OH. Bridge positions count the residues as written; N and C are the ends. Square brackets hold non-standard residues; d marks the D form. Peptide text beside a SMILES is read from it. * marks the point of attachment. ξ: configuration not given here. X32 = CC[C@H](C)[C@@H](N[*:1])[C@@H](O)CC(=O)O[C@H](C(=O)[C@H](C)C(=O)[*:2])C(C)C; NMeY = CN[C@@H](Cc1ccc(O)cc1)C(=O)O; NMeF = CN[CH](Cc1ccccc1)C(=O)O; ξNMeF = CNC(Cc1ccccc1)C(=O)O; NMeV = CN[CH](C(=O)O)C(C)C; Boc = CC(C)(C)OC(=O)*; OBn = c1ccc(CO*)cc1

System: NCI-H322M lung
Assay: NCI tumour cell line growth inhibition, 48 h

Row | Compound | GI50 | TGI
1 | O=C1/C(=C\c2ccc(F)cc2)CN(C(=O)c2ccccc2F)C/C1=C\c1ccc(F)cc1 | 3.91 µM | 15.8 µM
2 | C=C(COCO)C(C)=O | – | 98.7 µM
3 | CC(=O)OCC1OC(n2cccnc2=O)C(OC(C)=O)C1OC(C)=O (stereo not given) | – | > 100 µM
4 | COC(=O)c1cc(CC2Cc3cc4c(cc3C2=O)CCC4)cc2c1CCC2 (stereo not given) | – | > 100 µM
5 | COc1ccc(Cc2cc(Cc3ccc(OC)cc3)cc(Cc3ccc(OC)cc3)c2)cc1 | – | > 100 µM
6 | COC(=O)C1C(C(=O)O)C2(c3ccccc3)C(=O)C1(c1ccccc1)C(c1ccccc1)=C2c1ccccc1 (stereo not given) | 28.3 µM | 63.3 µM
7 | O=C1C=C(NCCO)c2nccc3c2c1nc1ccccc13 | 27 µM | 98.8 µM
8 | CC(C)[C@@H](C(=O)N(C)[C@H](C(=O)N1CCC[C@H]1C(=O)OCc1ccccc1)C(C)C)N(C)C(=O)C(Cc1ccccc1)N(C)C(=O)[C@H](NC(=O)OC(C)(C)C)C(C)C (stereo not given in full) (Boc-[dV][ξNMeF][NMeV][NMeV]P-OBn) | – | > 31.6 µM
9 | Cc1cc(O)c2c(c1)C(=O)c1c(c(O)cc(O)c1-c1c(O)cc(O)c3c1C(=O)c1cc(C)cc(O)c1C3=O)C2=O | – | 59.9 µM
10 | COc1ccc(Cn2cc(COc3cc(/C=C/C(=O)c4cc(OC)c(OC)c(OC)c4)ccc3OC)nn2)cc1 | 3.13 µM | 32.4 µM
11 | CC1=NN(c2ccc(S(=O)(=O)O)cc2)C2(C1)C(Cl)C(=O)N2c1nc2ccccc2s1 (stereo not given) | – | > 100 µM
12 | CC(=O)OC1CCC2OOC1O2 (stereo not given) | – | > 100 µM
13 | CCc1n[nH]c(=O)n1CC | – | > 100 µM
14 | Cc1[nH]c(C)c(CN(C)C)c1CN(C)C | – | > 100 µM
15 | COC(=O)[C@@H]1C[C@@H](O)CN1C(=O)c1ccc([N+](=O)[O-])cc1[N+](=O)[O-] | – | > 100 µM
16 | CC[C@H](C)[C@@H]([C@@H](CC(=O)N1CCC[C@H]1[C@H](OC)[C@@H](C)C(=O)NCCc1ccccc1)OC)N(C)C(=O)C(NC(=O)[C@H](C(C)C)N(C)C)C(C)C (stereo not given in full) | 0.000225 µM | 2.92 µM
17 | CCOc1cc(-c2nncn2C)ccc1Nc1ncc2cc(C)nc(NCC(C)(C)C)c2n1 | > 100 µM | > 100 µM
18 | CSC1=NN(C(C)=O)C(C(OC(C)=O)C(OC(C)=O)C(OC(C)=O)C(COC(C)=O)OC(C)=O)S1 (stereo not given) | – | > 100 µM
19 | CC(C)(C)OC(=O)N(O)[C@@H]1CC[C@H](n2cnc3c(N)ncnc32)C1 | – | > 100 µM
20 | C=C1N(S(=O)(=O)c2ccc(C)cc2)C(=O)OCC12CCCC2 | – | > 100 µM
21 | C=C(Cl)/C(=C\Cl)CCC(Cl)C(C)C (stereo not given) (tested in a mixture with another compound) | – | 30 µM
22 | Cc1cccc(C)c1NC(=O)CCC(=O)NC(N)=NC#N | – | > 100 µM

Row | Compound | GI50 | TGI
23 | CC(C)C(NC(=O)OC(C)(C)C)C(=O)N(C)C(Cc1ccccc1)C(=O)N(C)C(C(=O)OCc1ccccc1)C(C)C (stereo not drawn) (Boc-Val-[NMeF]-[NMeV]-OBn; configuration not given here) | – | > 100 µM
24 | Cc1cccc(NC(=O)C(=O)C(C2OC(=O)c3ccccc32)[N+](=O)[O-])c1C (stereo not given) | – | 29.8 µM
25 | CCOC(=O)c1cc(=O)n(C)c(=O)n1C | – | > 100 µM
26 | CN(C)c1ccc(/C=C(\C#N)c2cc3ccccc3[nH]2)cc1 | 2.88 µM | > 100 µM
27 | Cn1[nH]cc2ccc3nc4ccccc4c(=O)c3c21 | – | > 100 µM
28 | CN(C)NC1=C([N+](=O)[O-])C=NN(c2ccccc2)C1 | – | 13.2 µM
29 | NCCCNc1nc2ccccc2c2c(=O)c3cc(F)ccc3sc12 | 1.58 µM | 2.97 µM
30 | Cc1ccccc1NC(=O)/C(=N\NC(N)=S)C(C#N)c1ccccc1 (stereo not given) | – | > 100 µM
31 | CCCCC(=O)N(c1ccc(Nc2c3ccccc3nc3cc([N+](=O)[O-])ccc23)cc1)S(C)(=O)=O | 18.4 µM | > 81.5 µM
32 | COC(=O)[C@@H]1CN(C(=O)CCc2ccccc2)C(=O)N1 | – | > 100 µM
33 | CCc1nc(C)cn1C(=O)OCc1nc2nc(Cl)nc(N3CCOCC3)c2[nH]1 | 1.65 µM | 3.43 µM
34 | CN1CCN(CCCNC(=O)c2c3c(n4ccccc24)C(=O)c2ncccc2C3=O)CC1 | 1.47 µM | 8.81 µM
35 | Nc1ccccc1C#C/C=C\C#Cc1ccccc1C#CCO | 2.22 µM | 13 µM
36 | C[P+]1(Cc2ccccc2)CCCC1 | – | > 100 µM
37 | COCn1cc(C2=C(C)C(=O)C(C)=C(C)C2=O)cn1 | – | > 100 µM
38 | CC(=O)OCC1(C)C(O)CCC2(C)C1CCC1CC3CC12CCC3(O)CO (stereo not given) | – | > 100 µM
39 | CCn1cc(CNc2ccc(C(=O)Nc3cc4cc(OC)c(OC)cc4c(C)n3)cc2)c(C)n1 | > 100 µM | > 100 µM
40 | COC(=O)[C@]12CC[C@@H](C)[C@H](C)[C@@H]1C1=CC[C@@H]3[C@@]4(C)C(C=O)=C[C@@](C)(CO)[C@@H]4[C@H](O)C[C@@]3(C)[C@]1(C)CC2 | 12.3 µM | 25.7 µM
41 | NC(=O)c1c(NC(=O)c2cccs2)sc2c1CCC(=O)C2 | 7.89 µM | > 100 µM
42 | COC(=O)c1c[nH]c2cc(OC(C)C)c(OC(C)C)cc2c1=O | > 100 µM | > 100 µM
43 | C=C1CC(OC)(C(OC)C(=O)N[C@H]2OCO[C@H]3C2O[C@H](C[C@@H](COC)OC)C(C)(C)C3OC)O[C@H](C)[C@@H]1C (stereo not given in full) | – | 9.36 µM
44 | COc1cc(S(=O)(=O)Nc2ccc(-c3csc(N4C(=O)C(C)SC4c4cccs4)n3)cc2)ccc1Cl (stereo not given) | – | > 100 µM

Row | Compound | GI50 | TGI
45 | COc1ccc2c(c1)C(=Nc1ccc(F)c(Cl)c1)c1c-2c(Nc2ccc(F)c(Cl)c2)nc2ccccc12 | > 100 µM | > 100 µM
46 | NS(=O)(=O)c1ccc(N=Nc2ccc[nH]c2=O)cc1 | – | > 100 µM
47 | Cc1nc2sc(C(=O)Nc3cccc(Br)c3C)c(N)c2cc1C(O)c1ccccc1 (stereo not given) | 0.067 µM | 38.4 µM
48 | CCCCCCCCOC(=O)C12Oc3ccc(-c4ccc5c(c4O)C(O)=C4C(=O)CC(C)C(O)C4(C(=O)OCCCCCCCC)O5)c(O)c3C(O)=C1C(=O)CC(C)C2O (stereo not given) | – | > 100 µM
49 | C[C@@H]1S[C@H](c2c(F)cccc2Cl)n2c1nc1ccccc12 | – | 37 µM
50 | COC(=O)/C=C/CCC#Cc1ccccc1C#CCC/C=C/C(=O)OC | – | > 100 µM
51 | O[C@@]1(C#Cc2ccc3c(c2)OCO3)CCC[C@H]1NCc1ccccc1 | – | > 100 µM
52 | CC(=O)[O-].CC(=O)[O-].O=C(N/N=C/c1cc(Cl)cc(Cl)c1[OH2+])c1ccncc1.[Mn+2] | – | 20.9 µM
53 | N=c1oc2ccccc2cc1C(=O)Nc1cccc2ccccc12 | – | > 100 µM
54 | C/C=C/c1cc2c(cc1O)CC[C@@H]1[C@@H]2CC[C@]2(C)[C@@H](O)CC[C@@H]12 | – | 16 µM
55 | CN(c1ccccc1)c1cc2ccccc2nn1 | – | > 100 µM
56 | Cc1nc2nc(C)n(CCN3CCOCC3)c(=O)c2c(-c2cccc([N+](=O)[O-])c2)c1C(=O)CCCCCCCCCCN1CCC(c2ccccc2)(c2ccccc2)CC1 | 2.02 µg/mL | 3.97 µg/mL
57 | CC(=O)[CH-]C(=O)c1ccccc1.CC(=O)[CH-]C(=O)c1ccccc1.Cl.[O-]c1ccnc2ccccc12.[O-]c1ccnc2ccccc12.[Ti+4] | 72.8 µM | > 100 µM
58 | c1ccc(-c2[nH]ncc2-c2ccnc(-c3ccc(OCCN4CCOCC4)cc3)c2)nc1 | > 25 µM | > 25 µM
59 | Cc1cc(O)ccc1C1=NN(c2ccc(S(N)(=O)=O)cc2)C(=O)CC1 | > 50 µM and 54.7 µM | > 100 µM
60 | CC[C@H](C)[C@H]1NC(=O)[C@@H](N)[C@@H](C)OC(=O)[C@H](Cc2ccc(OC)cc2)N(C)C(=O)[C@@H]2CCCN2C(=O)[C@H](CC(C)C)NC(=O)[C@@H](C)C(=O)[C@H](C(C)C)OC(=O)C[C@@H]1O (H-T[X32]LP[NMeY](Me); ester 1-C) | – | > 100 µM
61 | C[C@]12CC[C@H](O[C@@H]3O[C@H](CO[C@@H]4O[C@H](CO)[C@@H](O)[C@H](O)[C@H]4O)[C@@H](O)[C@H](O)[C@H]3O)C[C@@H]1CC[C@@H]1[C@@H]2CC[C@]2(C)[C@@H](C3=CC(=O)OC3)CC[C@]12O | – | > 91.3 µM
62 | CCN(CC)CCNC(=O)c1cccc2c1-c1ccccc1C2=O | > 100 µM | > 100 µM
63 | O=C1Nc2ccc(Br)cc2/C1=N/S(=O)(=O)O | – | > 100 µM
64 | CCOC(=O)C1=C(OC(OCC)C([Se]c2ccccc2)C(C)C)CCC1 (stereo not given) | – | > 100 µM
65 | CC1(C)Cc2c(sc3[nH]c(=S)[nH]c(=S)c23)CS1 | – | > 100 µM
66 | Cc1cc(N2CCOCC2)nc2ccc(Cc3ccc4nc(N5CCOCC5)cc(C)c4c3)cc12 | – | > 100 µM

Row | Compound | GI50 | TGI
67 | Cc1ccc(C[As+](c2ccccc2)(c2ccccc2)c2ccccc2)cc1 | 3.56 µM | > 76.1 µM
68 | CC1OC(n2cc(C(F)(F)F)c(=O)[nH]c2=O)C=CC1=O (stereo not given) | – | 63.8 µM
69 | CN1CCN(c2cc3nc(-c4ccc(Cl)cc4)[nH]c3cc2F)CC1 | – | 33.7 µM
70 | CN1CCC2(CC1)N=C(SCC(=O)Nc1cnc3ccccc3c1)C(c1ccc(Br)cc1)=N2 | 3.18 µM | 12.7 µM
71 | O=S(=O)(NC1=NCCN1C(=S)SN1CCn2c1nsc2=S)c1ccc(Oc2ccccc2)cc1 | > 100 µM | > 100 µM
72 | C/C=C(\N=C=S)C(=O)OC1C(COC(C)=O)OC([C@]2(O)CC(=O)C(=N)C(C(=O)O)=C2O)C(O)C1OC1CC(OC)C(O)([C@@H](C)OC(=O)[C@@H](C)CC)C(C)O1 (stereo not given in full) | – | 38.7 µM
73 | O=Cc1ccc2ccocc1-2 | – | > 100 µM
74 | COc1ccc(OC)c(Nc2nc3nonc3nc2Nc2cccc(Br)c2)c1 | 2.32 µM | 81.5 µM
75 | O=C(O)CCC(NC(=O)c1ccc(Nc2cnc3cc(C(F)(F)F)ccc3n2)cc1)C(=O)O (stereo not given) | – | > 100 µM
76 | C/C(=N\NC(=O)c1ccncc1)c1sc(-n2nc(-c3ccccc3)cc2-c2ccccc2)nc1C | – | > 100 µM
77 | COC(=O)C1=CC2C(=O)OC1C1C(=O)NC(=O)C21 (stereo not given) | – | > 100 µM
78 | CCOC(=O)[C@@H]1[C@@H](c2ccccc2)N(C)O[C@@]1(c1ccccc1)C(F)(F)F | – | > 100 µM
79 | CC(C)c1oc(=O)cc2c1C(O)C1OC(=O)C3(C)C(O)C4OC4C2(C)C13 (stereo not given) | – | 27.5 µM
80 | O=C(c1cscc1CCc1ccccc1)c1cscc1CCc1ccccc1 | – | > 100 µM
81 | COC(=O)[C@H](Cc1cn(C)cn1)NC(=O)[C@H](CC(=O)OCc1ccccc1)NC(=O)Nc1cc(C(F)(F)F)cc(C(F)(F)F)c1 | 15.4 µM | 29.8 µM
82 | Cc1c(C(=O)c2ccccc2)[n+](=O)c2cc(Cl)c(Cl)cc2n1[O-] | – | 18.4 µM
83 | Brc1ccccc2cc(-c3ccccc3)nc1-2 | – | 53.3 µM
84 | CNc1cc([N+](=O)[O-])ccc1C(=O)N1CCC[C@H]1CO | – | > 100 µM
85 | N#Cc1c2ccccc2c(Cc2ccc3c(c2)OCCOCCOCCOCCOCCO3)c2ccccc12 | – | 29.3 µM
86 | COc1ccc(CN2C(=O)[C@@H]3Cc4c(OC)c(C)c(OC)c(OC)c4[C@H](/C2=C\c2cc(OC)c(OC)c(C)c2OC)N3C(=O)OC(C)C)cc1 | – | > 100 µM
87 | Nc1cccc2c1-c1c(cccc1[N+](=O)[O-])C2=O | – | > 100 µM
